Data: patent US20240321457A1 (University of California, published 2024)

Molecular target: T1, CRNN (human, UniProt Q9UBG3 1-495)
T1 construct: endogenous prey from cell lysate
Assay: AP-MS, 3xFLAG bait, breast cell lines

T1 sequence (Q9UBG3 whole entry): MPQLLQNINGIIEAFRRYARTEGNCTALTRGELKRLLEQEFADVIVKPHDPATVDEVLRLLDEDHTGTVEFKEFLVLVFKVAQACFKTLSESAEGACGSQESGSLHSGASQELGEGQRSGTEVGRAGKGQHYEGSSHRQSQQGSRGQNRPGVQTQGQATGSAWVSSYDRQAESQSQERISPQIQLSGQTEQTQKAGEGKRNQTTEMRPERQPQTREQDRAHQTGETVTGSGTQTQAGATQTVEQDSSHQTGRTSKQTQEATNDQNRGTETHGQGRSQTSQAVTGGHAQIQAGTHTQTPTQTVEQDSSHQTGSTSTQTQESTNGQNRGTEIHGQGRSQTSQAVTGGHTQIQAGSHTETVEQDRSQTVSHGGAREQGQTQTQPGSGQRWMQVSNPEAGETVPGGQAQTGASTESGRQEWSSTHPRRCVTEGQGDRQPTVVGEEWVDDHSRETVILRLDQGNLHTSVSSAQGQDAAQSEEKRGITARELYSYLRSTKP

B1: AKT1 E17K mutant (enzyme)
chain: not shown
B1: no binding.
